Source: patent publication US10800791B2, “Triazole ACC inhibitors and uses thereof” (Gilead Apollo, LLC, priority 2015, dated 2020)

Tests used:
[1] = tested on: Fusarium moniliforme (Fm); assay: Growth inhibition assay of fungal pathogens, Fm; assay type: cell-based; conditions: Fusarium verticillioides, 48 h, Fusarium moniliforme, read-out: Concentration at 90% Inhibition Fm
Procedure: (§1) Compounds of the present invention were evaluated in a growth inhibition assay to determine the ability to control the growth of fungal pathogens, such as Botrtyis cinerea (Bc), Collectotrichum graminicola (Cg), Diplodia maydis (Dm), Fusarium moniliforme (Fm), Fusarium virguliforme (Fv), Phytophthora capsici (Pc), Rhizoctonia solani (Rs), and Septoria tritici (St).
(§2) Compounds to be tested were dissolved in DMSO at 2.5 mg/ml to produce compound stock solutions (“stocks”). Stocks were diluted with DMSO by a five-fold dilution in a 96-well stock plate, and two sets of final concentrations of 50, 10, and 2 ppm or 2, 0.4, and 0.08 ppm were obtained in vitro. A set of positive controls was also prepared, with various concentrations of Soraphen (2, 0.4, and 0.08 ppm), Metalaxyl (1.1, 0.22, and 0.04 ppm), and Metconazole (2, 0.4, and 0.08 ppm or 0.2, 0.04, and 0.008 ppm) after the five-fold dilutions. Negative controls on each plate included 2% DMSO, water, and a blank (media+2% DMSO).
(§3) Fungal spores were isolated from previously sub-cultured plates of Botrtyis cinerea (Bc), Collectotrichum graminicola (Cg), Diplodia maydis (Dm), Fusarium moniliforme (Fm), Fusarium virguliforme (Fv), Phytophthora capsici (Pc), and Septoria tritici (St). The isolated spores were diluted to individual concentrations with a 17% V8 liquid media. For Rhizoctonia solani (Rs) and Pythium irregulare, 1.5 mm mycelial plugs were used in place of spores and/4 Potato Dextrose Broth (PDB) was used for dilution. The spore concentrations and plug sizes were based on growth curves generated at 48 hours for each pathogen.
(§4) In a second 96-well plate, the spores or mycelial plugs, media, diluted compound solutions, and controls were combined. Once the compound was added, a true final concentration of compound in each well was measured by an OD600 reading, which adjusted for any compound precipitation that might have occurred in the well. Plate readings were repeated at both 24 and 48 hours. The blank negative control was used as a background subtraction. Additional visual ratings were performed at both 24 and 48 hours for checking on precipitation and confirming efficacy. Visual and OD600 ratings of the compounds at 48 hours were compared to the 2% DMSO negative control, and the percent of pathogen growth inhibition was determined based on those values.

C. krusei = assay: Antifungal Activity Assay (broth microtiter MIC), C. krusei; assay type: cell-based, Candida krusei; conditions: Pichia kudriavzevii, ATCC6258, 48 h, ATCC 6258, 3 replicates, MIC recorded at 48 h, read-out: MIC, C. krusei ATCC 6258
Procedure: (§5) Compounds of the present invention were evaluated in an Antifungal Activity Assay. An exemplary procedure for the assay, which measures the susceptibility of various Candida species to antifungal compounds, follows. Compounds to be tested (including fluconazole and amphotericin B) were dissolved in DMSO to obtain a solution having a concentration of 1 mg/mL. These stock solutions were sterile filtered using a 0.22 um nylon syringe filter, then diluted in sterile water to achieve a final concentration of 128 μg/mL.
(§6) All species were grown from frozen stock by directly plating on to freshly prepared Sabouraud Dextrose agar (BD, Difco) and incubated overnight in ambient air at 35° C. for 24 h. A direct suspension was prepared in RPMI 1640+MOPS (Lonza, Biowhittaker) by taking individual colonies from the overnight cultures using sterile swabs soaked in sterile saline. The concentration of the suspension was determined using pre-determined standard curves. These suspensions were then diluted down to 5×10^3 CFU/mL to achieve a final concentration of 2.5×10^3 CFU/mL once added to the microtiter plate as per CLSI guidelines (M27-A3, Vol. 28 No. 14).
(§7) Broth microtiter MIC challenge plates were prepared following CLSI guidelines (M27-A3, Vol. 28 No. 14). The original CLSI guidelines focused on reading Candida MICs after 48 h of incubation. As reading after only 24 h offers a clear advantage of patient care, QC limits are being established for all drugs at 24 h. That being said there are no known interpretive breakpoints for amphotericin B at 24 h and the current fluconazole interpretive breakpoints are based on a 48 h reading. The MICs for the test compounds were recorded at 48 h. All MIC determinations were achieved by visually comparing the growth found in the antibiotic challenged wells to that of the growth control.

C. albicans = assay: Antifungal Activity Assay (broth microtiter MIC), C. albicans; assay type: cell-based; conditions: Candida albicans, ATCC90028, 48 h, ATCC 90028, 3 replicates, MIC recorded at 48 h, read-out: MIC, C. albicans ATCC 90028
Procedure: as §5, §6, §7

Septoria tritici (St) = assay: Growth inhibition assay of fungal pathogens, St; assay type: cell-based; conditions: Zymoseptoria tritici, 48 h, Septoria tritici, read-out: Concentration at 90% Inhibition St
Procedure: as §1, §2, §3, §4

[2] = tested on: Collectotrichum graminicola (Cg); assay: Growth inhibition assay of fungal pathogens, Cg; assay type: cell-based; conditions: 48 h, Collectotrichum graminicola, read-out: Concentration at 90% Inhibition Cg
Procedure: as §1, §2, §3, §4

fungal (fACC2) = fungal (fACC2) (UniProt Q00955); conditions: read-out: fACC2 (in vitro ACC2 Inhibition Assay, IC50), ADP-Glo, 5 nM ACC2, 20 μM ATP, 20 μM acetyl-CoA
[3] = tested on: Fusarium virguliforme (Fv); assay: Growth inhibition assay of fungal pathogens, Fv; assay type: cell-based; conditions: 48 h, read-out: Concentration at 90% Inhibition Fv
Procedure: as §1, §2, §3, §4

C. parapsilosis = assay: Antifungal Activity Assay (broth microtiter MIC), C. parapsilosis; assay type: cell-based, Candida parapsilosis; conditions: Lodderomyces parapsilosis, ATCC22019, 48 h, ATCC 22019, 3 replicates, MIC recorded at 48 h, read-out: MIC, C. parapsilosis ATCC 22019
Procedure: as §5, §6, §7

Diplodia maydis (Dm) = assay: Growth inhibition assay of fungal pathogens, Dm; assay type: cell-based; conditions: Stenocarpella maydis, 48 h, Diplodia maydis, read-out: Concentration at 90% Inhibition Dm
Procedure: as §1, §2, §3, §4

[4] = tested on: Phytophthora capsici (Pc); assay: Growth inhibition assay of fungal pathogens, Pc; assay type: cell-based; conditions: 48 h, read-out: Concentration at 90% Inhibition Pc
Procedure: as §1, §2, §3, §4

Botrtyis cinerea (Bc) = assay: Growth inhibition assay of fungal pathogens, Bc; assay type: cell-based; conditions: 48 h, Botrtyis cinerea, read-out: Concentration at 90% Inhibition Bc
Procedure: as §1, §2, §3, §4

[5] = growth inhibition at 48 hours vs 2% DMSO control
[6] = growth inhibition vs 2% DMSO control at 48 hours

Sequence of UniProt Q00955 (Q00955 whole entry): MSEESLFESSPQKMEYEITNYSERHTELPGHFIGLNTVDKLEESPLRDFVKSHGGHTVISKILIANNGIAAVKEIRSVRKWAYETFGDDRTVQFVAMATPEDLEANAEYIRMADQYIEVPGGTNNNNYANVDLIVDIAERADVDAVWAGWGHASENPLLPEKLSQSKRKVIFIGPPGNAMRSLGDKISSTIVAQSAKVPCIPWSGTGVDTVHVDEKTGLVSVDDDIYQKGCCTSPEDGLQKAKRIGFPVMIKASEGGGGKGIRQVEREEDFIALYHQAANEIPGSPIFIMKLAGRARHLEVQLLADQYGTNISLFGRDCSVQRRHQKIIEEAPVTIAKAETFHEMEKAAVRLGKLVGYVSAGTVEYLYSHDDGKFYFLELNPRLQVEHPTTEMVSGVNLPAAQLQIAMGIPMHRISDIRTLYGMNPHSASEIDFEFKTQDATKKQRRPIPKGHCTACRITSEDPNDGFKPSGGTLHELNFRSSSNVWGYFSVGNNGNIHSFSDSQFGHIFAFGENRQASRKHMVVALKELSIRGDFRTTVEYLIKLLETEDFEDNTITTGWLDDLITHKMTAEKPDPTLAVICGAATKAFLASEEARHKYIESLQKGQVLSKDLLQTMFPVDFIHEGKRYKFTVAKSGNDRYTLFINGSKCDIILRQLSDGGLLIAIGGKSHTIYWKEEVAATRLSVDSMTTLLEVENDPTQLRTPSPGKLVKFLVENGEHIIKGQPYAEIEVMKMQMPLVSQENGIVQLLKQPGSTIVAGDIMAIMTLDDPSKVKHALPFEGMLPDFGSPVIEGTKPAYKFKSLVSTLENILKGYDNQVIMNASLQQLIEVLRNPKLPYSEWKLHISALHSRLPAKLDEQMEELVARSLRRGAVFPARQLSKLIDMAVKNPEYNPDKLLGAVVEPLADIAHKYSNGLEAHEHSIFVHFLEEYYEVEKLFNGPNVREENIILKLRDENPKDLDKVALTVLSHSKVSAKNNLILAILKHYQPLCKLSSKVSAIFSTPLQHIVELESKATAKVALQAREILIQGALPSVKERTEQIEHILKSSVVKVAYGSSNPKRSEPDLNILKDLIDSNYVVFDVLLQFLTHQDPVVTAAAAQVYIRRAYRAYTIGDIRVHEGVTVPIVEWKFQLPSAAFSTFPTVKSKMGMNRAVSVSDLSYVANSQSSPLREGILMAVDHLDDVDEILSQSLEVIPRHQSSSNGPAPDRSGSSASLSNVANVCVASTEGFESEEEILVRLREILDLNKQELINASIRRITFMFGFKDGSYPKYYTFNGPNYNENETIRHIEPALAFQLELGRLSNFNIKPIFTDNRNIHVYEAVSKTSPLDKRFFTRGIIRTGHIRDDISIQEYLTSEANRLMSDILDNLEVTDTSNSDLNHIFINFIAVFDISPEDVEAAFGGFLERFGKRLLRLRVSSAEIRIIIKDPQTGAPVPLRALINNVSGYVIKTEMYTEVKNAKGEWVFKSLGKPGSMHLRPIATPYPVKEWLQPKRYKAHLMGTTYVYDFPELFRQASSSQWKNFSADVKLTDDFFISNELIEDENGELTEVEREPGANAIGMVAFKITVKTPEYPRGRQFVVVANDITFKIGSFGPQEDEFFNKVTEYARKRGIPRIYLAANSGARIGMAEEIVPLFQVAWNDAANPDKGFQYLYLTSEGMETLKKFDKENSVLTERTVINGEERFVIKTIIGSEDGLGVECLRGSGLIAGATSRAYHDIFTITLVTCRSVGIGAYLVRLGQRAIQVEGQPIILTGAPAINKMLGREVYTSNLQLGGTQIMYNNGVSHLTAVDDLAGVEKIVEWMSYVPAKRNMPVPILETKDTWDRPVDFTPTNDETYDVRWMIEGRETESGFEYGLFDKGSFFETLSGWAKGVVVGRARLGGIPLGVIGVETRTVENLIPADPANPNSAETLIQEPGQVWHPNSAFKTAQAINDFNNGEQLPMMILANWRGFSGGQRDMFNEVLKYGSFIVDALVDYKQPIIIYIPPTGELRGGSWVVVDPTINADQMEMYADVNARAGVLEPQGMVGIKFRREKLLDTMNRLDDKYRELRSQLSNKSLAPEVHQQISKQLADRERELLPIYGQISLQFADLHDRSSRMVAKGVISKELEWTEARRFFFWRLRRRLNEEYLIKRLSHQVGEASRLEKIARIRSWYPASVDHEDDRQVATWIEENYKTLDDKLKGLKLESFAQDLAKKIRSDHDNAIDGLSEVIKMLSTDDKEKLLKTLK

## COc1ccc(F)cc1[C@H](Cn1c(=O)n(C(C)C(=O)N2CCCC2)c(=O)c2c(C)c(-n3nccn3)sc21)OC(C)C (stereo partly drawn) [Compound I-40, 1-((R)-2-(5-fluoro-2-methoxyphenyl)-2-isopropoxyethyl)-5-methyl-3-(1-oxo-1-(pyrrolidin-1-yl)propan-2-yl)-6-(2H-1,2,3-triazol-2-yl)thieno[2,3-d]pyrimidine-2,4(1H,3H)-dione]
[1]; [5]
  IC90: 0.08 µg/mL (≈ 0.137 µM)
[1]; [6]
  IC90: 0.08 µg/mL (≈ 0.137 µM)
C. krusei; Table 3a
  MIC: 0.25 to 1 µg/mL (≈ 0.428 to 1.71 µM)
C. krusei; Table 3b (additional results)
  MIC: 0.25 to 1 µg/mL (≈ 0.428 to 1.71 µM)
C. albicans; Table 3a
  MIC: 0.25 to 1 µg/mL (≈ 0.428 to 1.71 µM)
C. albicans; Table 3b (additional results)
  MIC: 0.25 to 1 µg/mL (≈ 0.428 to 1.71 µM)
Septoria tritici (St); [5]
  IC90: 10 µg/mL (≈ 17.1 µM)
Septoria tritici (St); [6]
  IC90: > 50 µg/mL
[2]; [5]
  IC90: 0.08 µg/mL (≈ 0.137 µM)
[2]; [6]
  IC90: 0.08 µg/mL (≈ 0.137 µM)
Fungal (fACC2); Table 2a
  IC50: 1 to 5 nM
Fungal (fACC2); Table 2b, additional results
  IC50: 1 to 5 nM
[3]; [5]
  IC90: 0.4 µg/mL (≈ 0.684 µM)
[3]; [6]
  IC90: 0.08 µg/mL (≈ 0.137 µM)
C. parapsilosis; Table 3a
  MIC: 0.25 to 1 µg/mL (≈ 0.428 to 1.71 µM)
C. parapsilosis; Table 3b (additional results)
  MIC: 1.01 to 2 µg/mL (≈ 1.73 to 3.42 µM)
Diplodia maydis (Dm); [5]
  IC90: 0.08 µg/mL (≈ 0.137 µM)
Diplodia maydis (Dm); [6]
  IC90: 0.08 µg/mL (≈ 0.137 µM)
[4]; [5]
  IC90: > 50 µg/mL
[4]; [6]
  IC90: > 50 µg/mL
Botrtyis cinerea (Bc); [5]
  IC90: 0.4 µg/mL (≈ 0.684 µM)
Botrtyis cinerea (Bc); [6]
  IC90: 0.4 µg/mL (≈ 0.684 µM)

Converted amounts (≈) assume the structure as drawn. Like-named read-outs stand apart in the source and are kept apart here.
